Data reported in PMC5823869.
Several values for one entry are separate records, joined by “and”; a condition that tells them apart may be missing. Equal entries are not always repeated.

Tests used:
[1] = molecular target: purified His-tagged YAP2L-WT (human) (UniProt P46937); assay: non-reducing SDS-PAGE with immunoblot; 1 µg of purified His-YAP2L or GST-TAZ protein, sample buffer without DTT; blot with anti-His-HRP or anti-YAP, or Ponceau-S staining
[2] = molecular target: YAP2L-WT (YAP2γ), FLAG- or HA-tagged (human) (UniProt P46937); assay: non-reducing SDS-PAGE with immunoblot; cell lysates (15 µg of transfected HEK293; 30 µg of H460 for endogenous TAZ) in SDS sample buffer without DTT, 3 min at 60 °C; blot with anti-FLAG, anti-HA or anti-TAZ; series with increasing DTT run beside

stoichiometry N [1]	stoichiometry N [2]	Substance
2 and 3 and 4	–	purified His-tagged YAP2L-WT (a stretch of the chain, sequence not shown) (natural protein; other documents disagree on this pair)
–	2	YAP2L-WT (YAP2γ), FLAG- or HA-tagged (a stretch of the chain, sequence not shown) (natural protein; other documents disagree on this pair)
